Earlier results on 55 sequences are cited in PMC11006913.

Details in all cases: PBM; conditions not shown; double strand, one strand shown; scale: upbm affinity estimate (log intensity, higher = more binding, comparable within an allelic series)
One data set deals with ISX (Homo sapiens) (UniProt Q2M1V0).
Another data set has as its target ISX R83Q (Homo sapiens) (UniProt Q2M1V0).
The target of data set [1] is PITX2 L100Q (Homo sapiens) (UniProt Q99697).
Data set [2] deals with PITX2 R108H (Homo sapiens) (UniProt Q99697).
Data set [3] has as its target PITX2 R130W (Homo sapiens) (UniProt Q99697).
Data set [4] has as its target PITX2 T114P (Homo sapiens) (UniProt Q99697).
In data set [5] the target is NKX2-5 K183E (Homo sapiens) (UniProt P52952).
Data set [6] deals with NKX2-5 R161P (Homo sapiens) (UniProt P52952).
Data set [7] has as its target NKX2-5 R190C (Homo sapiens) (UniProt P52952).
The target in data set [8] is PROP1 R112Q (Homo sapiens) (UniProt O75360).
The target of data set [9] is PROP1 R99Q (Homo sapiens) (UniProt O75360).

This is one part of the list.

With GGGCCCCA [8-mer GGGCCCCA], the binding signal in the data set with ISX (Homo sapiens) was 9.69; with ISX R83Q (Homo sapiens), 9.76.

With CGGCGCGC [8-mer CGGCGCGC], the binding signal with ISX (Homo sapiens) is 9.67; with ISX R83Q (Homo sapiens), 9.71.

Regarding CCTGGGGC [8-mer CCTGGGGC], the binding signal with ISX (Homo sapiens) is 9.39; in the data set with ISX R83Q (Homo sapiens), 9.62; in data set [1], 8.2; in data set [2], 7.84; in [3] it was 7.69; in data set [4], 7.82.

For GCGACCGC [8-mer GCGACCGC], the binding signal with ISX (Homo sapiens) was 9.58; in the data set with ISX R83Q (Homo sapiens), 9.63; in data set [5] it was 9.98; in data set [6], 10.1; in data set [7], 9.94.

For GCCGGGCA [8-mer GCCGGGCA], the binding signal in the data set with ISX (Homo sapiens) was 9.88; with ISX R83Q (Homo sapiens) it was 9.73.

For the sequence CAAATTGA [8-mer CAAATTGA], the binding signal was 13.1 in the data set with ISX (Homo sapiens) and 11.7 with ISX R83Q (Homo sapiens).

For CCGGTCCG [8-mer CCGGTCCG], the figures for the binding signal with ISX (Homo sapiens) and with ISX R83Q (Homo sapiens) were 9.79 and 9.78, respectively.

Regarding TGGCGCCA [8-mer TGGCGCCA], the binding signal with ISX (Homo sapiens) is 9.89; with ISX R83Q (Homo sapiens), 9.73.

For GGGCACCC [8-mer GGGCACCC], the results for the binding signal with ISX (Homo sapiens) and in the data set with ISX R83Q (Homo sapiens) were 9.91 and 9.77, respectively.

On to CCTAATCC [8-mer CCTAATCC], for which the binding signal was 11.3 with ISX (Homo sapiens); 11.4 in data set [1]; 9.52 in data set [2]; 8.49 in [3]; 9.96 in data set [4].

As to CCTCTTCA [8-mer CCTCTTCA], the binding signal in data set [5] is 11.6.

On to GCACTCCA [8-mer GCACTCCA], for which the binding signal in data set [5] was 10.6.

Regarding CAAAGTGC [8-mer CAAAGTGC], the binding signal in data set [5] was 10.7.

GAAGGACC [8-mer GAAGGACC]: the binding signal with ISX (Homo sapiens) is 9.65; with ISX R83Q (Homo sapiens), 9.83; in data set [8], 10.8; in [9] it was 10.9.

As to AATTAAAA [8-mer AATTAAAA], the binding signal in the data set with ISX R83Q (Homo sapiens) is 13.2.

As for GGCCCCCA [8-mer GGCCCCCA], the binding signal was 9.7 with ISX (Homo sapiens), 9.79 in the data set with ISX R83Q (Homo sapiens), 10.8 in [8] and 10.8 in data set [9].

CCCCCGGG [8-mer CCCCCGGG]: the binding signal with ISX (Homo sapiens) is 9.55; with ISX R83Q (Homo sapiens), 9.58; in data set [1] it was 8.29; in data set [2], 7.88; in [3] it was 7.57; in data set [4] it was 7.92.

Turning to CCTCTTAA [8-mer CCTCTTAA], the binding signal with ISX (Homo sapiens) was 11.8; in [5], 11.7; in data set [6], 12.1; in data set [7], 10.8.

Regarding GAGCACTC [8-mer GAGCACTC], the binding signal in [5] was 10.7.

Regarding CCCCTTGA [8-mer CCCCTTGA], the binding signal in data set [5] was 11.7.

Consider CCGGGCCA [8-mer CCGGGCCA], for which the binding signal with ISX (Homo sapiens) was 9.65; with ISX R83Q (Homo sapiens) it was 9.71; in [8], 10.9; in [9], 10.9.

As for GAGTACCC [8-mer GAGTACCC], the binding signal in [5] was 10.5.

With AGCTGGCG [8-mer AGCTGGCG], the binding signal is 9.64 with ISX (Homo sapiens); 9.74 with ISX R83Q (Homo sapiens); 8.33 in [1]; 8.03 in [2]; 7.91 in data set [3]; 8.08 in data set [4].

In the case of CAGGGTGC [8-mer CAGGGTGC], the binding signal in the data set with ISX (Homo sapiens) was 9.7; with ISX R83Q (Homo sapiens), 9.8; in data set [1] it was 8.31; in data set [2], 8.07; in data set [3], 7.96; in data set [4], 8.12.

In the case of ATTACAAT [8-mer ATTACAAT], the values for the binding signal (in the data set with ISX (Homo sapiens); in [8]) were 12.4 and 12.1, respectively.

As to CAAGGGTC [8-mer CAAGGGTC], the binding signal in data set [5] was 10.6.

Regarding GGTACTCA [8-mer GGTACTCA], the binding signal in [5] is 10.7.

For ATAAAGTG [8-mer ATAAAGTG], in [5], the binding signal is 11.4.

For AACTTATT [8-mer AACTTATT], the binding signal was 12.3 with ISX (Homo sapiens) and 11.9 in data set [8].

As for GCAAGTGC [8-mer GCAAGTGC], the binding signal in data set [5] was 10.6.

In the case of AATTGACA [8-mer AATTGACA], the binding signal in the data set with ISX R83Q (Homo sapiens) is 11.9.

With ACGAGTGC [8-mer ACGAGTGC], the binding signal in data set [5] is 10.6.

For CCGGGCCC [8-mer CCGGGCCC], the binding signal with ISX (Homo sapiens) is 9.63; with ISX R83Q (Homo sapiens) it was 9.65; in data set [1], 8.06; in [2], 7.81; in data set [3] it was 7.71; in data set [4], 7.91. The binding signal in [8] was 10.7; in [9] it was 10.8.

Turning to GGCCGCCC [8-mer GGCCGCCC], the binding signal with ISX (Homo sapiens) was 9.81; with ISX R83Q (Homo sapiens), 9.65; in data set [1], 7.92; in data set [2], 7.86; in [3], 7.69; in data set [4], 7.89.

As for ATAATTTG [8-mer ATAATTTG], the binding signal with ISX R83Q (Homo sapiens) was 12.2.

For the sequence AATACACT [8-mer AATACACT], in [5], the binding signal is 11.4.

On to AAAGTGCG [8-mer AAAGTGCG], for which the binding signal in [5] was 10.7.

On to CTGGGGCA [8-mer CTGGGGCA], for which the binding signal with ISX (Homo sapiens) is 9.6; in the data set with ISX R83Q (Homo sapiens), 9.71; in data set [1], 8.07; in [2], 8.11; in [3] it was 8.05; in data set [4], 8.14.

As to CCGCGCGG [8-mer CCGCGCGG], the binding signal with ISX (Homo sapiens) was 9.79; with ISX R83Q (Homo sapiens), 9.82; in data set [8], 10.9; in data set [9], 11.2.

With CGGTACTC [8-mer CGGTACTC], in data set [5], the binding signal is 10.4.

As for GAGAGTGC [8-mer GAGAGTGC], the binding signal in [5] was 10.7.

Consider CGCACTCA [8-mer CGCACTCA], for which the binding signal in data set [5] is 10.7.

For ATAAGAGG [8-mer ATAAGAGG], in [5], the binding signal was 11.7.

In the case of AAAGTGGT [8-mer AAAGTGGT], in data set [5], the binding signal was 11.6.

With CCGGGGGC [8-mer CCGGGGGC], the binding signal with ISX (Homo sapiens) is 9.61; in the data set with ISX R83Q (Homo sapiens) it was 9.61; in data set [1], 8.01; in [2], 7.84; in data set [3] it was 7.42; in [4], 7.8.

As to AATTAAAG [8-mer AATTAAAG], the binding signal in the data set with ISX R83Q (Homo sapiens) is 13.4.

As to ACGCACTC [8-mer ACGCACTC], the binding signal in data set [5] is 10.6.

Regarding GCGGGCCC [8-mer GCGGGCCC], the binding signal with ISX (Homo sapiens) was 9.69; with ISX R83Q (Homo sapiens) it was 9.6; in data set [8] it was 10.7; in data set [9], 10.9.

GTCCGCCA [8-mer GTCCGCCA]: the results for the binding signal in data set [5], in data set [6] and in data set [7] were 10.4, 10.5 and 10.4, respectively.

AGCGGCAG [8-mer AGCGGCAG]: the binding signal in data set [5], in [6] and in data set [7] was 10.2 throughout.

Regarding CGGGTCAG [8-mer CGGGTCAG], the binding signal in [5] is 10.1; in [6] it was 10.2; in data set [7], 10.2.

Take ACTGTCCC [8-mer ACTGTCCC]: the binding signal is 10.4 in [5], 10.6 in data set [6] and 10.4 in [7].

For the sequence AAGTGGCG [8-mer AAGTGGCG], the binding signal in data set [5] is 11.7; in data set [6], 12.5; in data set [7], 10.6.

Regarding AAGTGCGT [8-mer AAGTGCGT], the binding signal was 10.9 in data set [5], 12.2 in [6] and 10.6 in data set [7].

Regarding ACGCCCCG [8-mer ACGCCCCG], the binding signal is 9.96 in [5], 9.98 in [6] and 9.87 in [7].
